# Source: PubChem BioAssay AID720708 (National Center for Advancing Translational Sciences (NCATS), 2013)
# The campaign covered roughly 360,000 compounds. About 660 (0.18%) were called active. This list was built around the results that the source calls inconclusive (neither active nor inactive); the mix of calls is not that of the screen. The call rests on the fitted dose curve; in most records, active means well fitted inhibition curve with a large enough effect; inconclusive means small, poorly fitted or top-dose-only effect; inactive means no such curve, though single readings can be large or run the other way. No potency is given beside an inconclusive call; the fits are too rough.
# Target: Rap guanine nucleotide exchange factor 4 (Homo sapiens) (UniProt Q8WZA2)
# Chain of UniProt Q8WZA2 (Q8WZA2 whole entry, looked up): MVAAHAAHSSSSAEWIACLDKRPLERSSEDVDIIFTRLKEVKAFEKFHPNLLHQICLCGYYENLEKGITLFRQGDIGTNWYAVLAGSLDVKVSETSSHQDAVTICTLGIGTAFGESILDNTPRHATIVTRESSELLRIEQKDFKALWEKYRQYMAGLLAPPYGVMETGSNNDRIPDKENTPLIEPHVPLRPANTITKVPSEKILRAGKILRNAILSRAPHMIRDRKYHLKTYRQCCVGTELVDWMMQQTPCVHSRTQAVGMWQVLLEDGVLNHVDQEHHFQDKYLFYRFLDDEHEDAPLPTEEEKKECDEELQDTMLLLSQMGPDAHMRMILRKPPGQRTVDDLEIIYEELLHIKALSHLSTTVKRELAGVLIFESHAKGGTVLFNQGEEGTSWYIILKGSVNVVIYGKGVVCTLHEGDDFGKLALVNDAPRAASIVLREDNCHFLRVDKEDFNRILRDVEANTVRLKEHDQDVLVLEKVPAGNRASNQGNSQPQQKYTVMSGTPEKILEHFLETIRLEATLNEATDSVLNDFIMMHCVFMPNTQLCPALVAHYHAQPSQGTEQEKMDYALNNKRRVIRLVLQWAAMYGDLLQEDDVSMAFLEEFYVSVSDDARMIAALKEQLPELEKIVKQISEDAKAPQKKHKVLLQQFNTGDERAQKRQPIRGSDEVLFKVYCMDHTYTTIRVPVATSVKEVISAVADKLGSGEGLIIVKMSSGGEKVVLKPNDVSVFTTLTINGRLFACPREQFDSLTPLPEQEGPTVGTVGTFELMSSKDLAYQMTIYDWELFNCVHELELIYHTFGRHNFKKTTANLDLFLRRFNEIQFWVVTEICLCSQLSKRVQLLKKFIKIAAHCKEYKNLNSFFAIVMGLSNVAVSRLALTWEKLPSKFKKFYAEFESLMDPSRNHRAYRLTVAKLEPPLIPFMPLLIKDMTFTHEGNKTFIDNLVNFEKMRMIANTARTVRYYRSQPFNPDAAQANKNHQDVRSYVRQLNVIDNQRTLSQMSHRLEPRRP
# Assay: qHTS for Antagonist of cAMP-regulated guanine nucleotide exchange factor 2 (EPAC2): primary screen; further: nearly all actives have a fitted effect of over 45% in size
# Conditions: EPAC2 GEF exchange of Rap1B-BODIPY-GDP, fluorescence; activity, negative = inhibition: at 114 µM (top of the series) unless noted
# On the % scale 0 is the no-effect control and ±100 the full control effect; potency means the concentration at half of the fitted maximal effect; tags describe the fitted curve by direction and shape.
SMILES,Potency,"activity, negative = inhibition"
O=C1C(C2=C(O)c3ccccc3C2=O)=Nc2ccccc21,"inconclusive [inhibitor, partial curve]",
Nc1nc2ccccc2n1S(=O)(=O)c1ccc([N+](=O)[O-])cc1,"inconclusive [inhibitor, single point]",
Cc1ccc(Cl)cc1N1CCN(C(=O)Cc2c(C(=O)O)[nH]c3ccc(Cl)cc23)CC1,"inconclusive [inhibitor, full curve]",
CC(=O)C[C@H]1SC[C@@H](C(C)C)N1S(=O)(=O)c1ccc(C)cc1,active: 39.8 µM,
COC(=O)c1c(-c2cc(OC)cc(OC)c2)sc2ccc(OC)cc12,"inconclusive [inhibitor, full curve]",
Cc1ccc(-c2nc3cc(Br)cnc3nc2-c2ccc(C)cc2)cc1,"inconclusive [inhibitor, full curve]",
CC(=O)c1cnn(-c2c(Cl)cc(Cl)cc2Cl)c1C,"inconclusive [inhibitor, partial curve]",
Cc1nn(C)c2nc(-c3cccs3)cc(C(F)(F)F)c12,"inconclusive [inhibitor, partial curve]",
COC(=O)c1cc(Cn2nc(C(=O)O)c3ccccc3c2=O)oc1C,"inconclusive [inhibitor, single point]",
O=C(/C=C/c1ccc2c(c1)OCO2)N1CCN(c2ccc(Cl)cc2)CC1,,inactive: 4.14%
O=c1c([N+](=O)[O-])c(N2CCOCC2)c2ccccc2n1Cc1ccccc1,"inconclusive [inhibitor, single point]",
Cc1ccc(OCC(=O)Nc2ccccc2N2CCCC2)c(C)c1,"inconclusive [inhibitor, partial curve]",
COc1ccc(C2C(C#N)=C(N)Oc3cc(O)ccc32)cc1C (centres undefined),"inconclusive [inhibitor, partial curve]",
CSc1cccc(N/C(=N/S(=O)(=O)c2ccccc2)NN)c1,,inactive: 2.42%
COc1ccccc1C(C#N)N1N=C(C)CC1c1ccccc1 (centres undefined),"inconclusive [inhibitor, full curve]",
CCCc1cc2c(-c3ccccc3)cc(=O)oc2cc1OCc1ccc(C(=O)O)o1,"inconclusive [inhibitor, partial curve]",
COc1ccc(NS(=O)(=O)c2cc(C(=O)Nc3ccccc3C(=O)O)ccc2C)cc1,"inconclusive [inhibitor, partial curve, poor fit]",
COc1ccc(N(CC(=O)NCCSCc2ccccc2Cl)S(C)(=O)=O)cc1Cl,"inconclusive [inhibitor, single point]",
Cc1ccc(-c2csc(N(CC3CCCO3)C(=O)c3ccco3)n2)cc1 (centres undefined),"inconclusive [inhibitor, partial curve]",
COc1ccc(N2CCN(C(CNC(C)=O)c3ccc4c(c3)OCO4)CC2)cc1 (centres undefined),"inconclusive [inhibitor, single point]",
CC(C)n1c(O)c(N=Nc2ccc(Cl)c(C(=O)O)c2)c2ccccc21,"inconclusive [inhibitor, partial curve]",
COc1cc(OC)cc(C(=O)N[C@H](C(=O)OCC(=O)Nc2ccc3c(c2)OCO3)C(C)C)c1,"inconclusive [inhibitor, single point]",

SMILES,Potency,"activity, negative = inhibition"
CCC/C=C/c1ccc(CN2C(CC(C)C)C(=O)N(Cc3cn(Cc4ccco4)nn3)CCS2(=O)=O)cc1 (centres undefined),"inconclusive [inhibitor, partial curve]",
Cc1cccc([C@H]2[C@@H]3C=CCC[C@@H]3C(=O)N2Cc2ccccc2)c1,"inconclusive [inhibitor, full curve]",
CC(CN1CC(=O)NC(=O)C1)N1CC(=O)NC(=O)C1 (centres undefined),,inactive: -11.5%
CN1OC[C@@H]2CN[C@H](c3ccc(-c4cccc(F)c4)cc3)C[C@@H]21,,inactive: 8.56%
CCOC(=O)C1=C(O)/C(=C/c2ccc(OCC(=O)O)c(OCC)c2)SC1=Nc1ccccc1,"inconclusive [inhibitor, partial curve]",
Cc1ccc(NC(=O)C(C)SCC(=O)Nc2ccc(F)cc2)cc1S(=O)(=O)N1CCOCC1 (centres undefined),,inactive: 11.7%
COc1ccc(-n2c(-c3ccco3)nc3c(cnn3-c3ccc(C)cc3)c2=O)cc1,"inconclusive [inhibitor, single point]",
CCC(=C/c1sc2ccc3ccccc3c2[n+]1C)/C=C1\Sc2ccc3ccccc3c2N1C,"inconclusive [inhibitor, partial curve]",
O=C(COC(=O)Cc1ccc(S(=O)(=O)N2CCOCC2)s1)Nc1ccccc1Cl,,inactive: 6.53%
CN(Cc1ccco1)c1ncnc2ccc(-c3ccc4c(c3)OCO4)cc12,"inconclusive [inhibitor, full curve]",
O=C(O)c1nc(Cl)c(Cl)c(N/N=C/c2ccccc2C(F)(F)F)c1Cl,"inconclusive [inhibitor, single point]",
COc1ccc(S(=O)(=O)NC(=O)C2(C)CCN2C(=O)C2(c3ccc(Cl)cc3)CCC2)cc1 (centres undefined),"inconclusive [inhibitor, full curve]",
C[C@H](CO)N1C[C@H](C)[C@H](CN(C)S(=O)(=O)c2cccc(F)c2)OCc2ccccc2-c2c(n(C)c3ccccc23)C1=O,,inactive: -5%
CCOC(=O)c1ccc(NC(=S)N2CCN(CCN=CC3=C(O)CC(c4ccccc4)CC3=O)CC2)cc1 (centres undefined),"inconclusive [inhibitor, single point]",
CCOC(=O)Cn1c(=O)oc2cc(S(=O)(=O)Nc3c(C)cc(C)cc3C)ccc21,"inconclusive [inhibitor, single point]",
CC(=O)N(c1cccc(C)c1)C1SC(=O)N(c2ccccc2)C1=O (centres undefined),,inactive: 11.4%
C=CCN(CC=C)C(=S)NC(=O)c1ccc(OC)cc1,,inactive: -16.9%
COCCNc1nc(NCc2ccccc2)nc2ccsc12,"inconclusive [inhibitor, single point]",
Clc1ccc(OCCSc2ncccn2)c(Br)c1,"inconclusive [inhibitor, full curve]",
Cn1c(=O)c2cc(NC(=O)NCc3ccc(Cl)cc3Cl)ccc2n1Cc1ccccc1,,inactive: 2.73%
Cc1nc2ccc(NC(=O)[C@H](C)N3C(=O)C4CC=CCC4C3=O)cc2s1 (some centres undefined),,inactive: 0.233%
Cc1ccc(C)c(Cn2c(CN(C)Cc3ccccc3)nc3c2c(=O)n(C)c(=O)n3C)c1,"inconclusive [inhibitor, partial curve]",

SMILES,Potency,"activity, negative = inhibition"
O=C(O)CCN1C(=O)c2ccc(NC(=O)CSc3ccc(Cl)cc3)cc2C1=O,"inconclusive [inhibitor, partial curve]",
CN(Cc1ccccc1F)c1nc(-c2cccnc2)nc2ccccc12,"inconclusive [inhibitor, partial curve]",
Cc1cc2oc(=O)c(CC(=O)O)c(C)c2c2occ(C(C)(C)C)c12,"inconclusive [inhibitor, partial curve]",
CCCCNc1c(-c2ccc(OC)c(SC(C)CC)c2)nc2ccc(C)cn12 (centres undefined),"inconclusive [inhibitor, single point]",
Cn1c(SCc2ccc(C(C)(C)C)cc2)nnc1C1COc2ccccc2O1 (centres undefined),"inconclusive [inhibitor, full curve, poor fit]",
C=C1SC(=Nc2ccccc2Cl)N(C(=O)c2sc3ccccc3c2Cl)C1(C)C,"inconclusive [inhibitor, full curve, poor fit]",
c1ccc(-c2csc(NC3CCCCC3)n2)cc1,"inconclusive [inhibitor, partial curve]",
CCC(CC)C(=O)N(C)c1c(C)nc2c(OCc3ccc(C(F)(F)F)cc3)cccn12,"inconclusive [inhibitor, partial curve]",
Clc1cccc(OCc2nnc(-c3ccccc3Br)o2)c1,"inconclusive [inhibitor, single point]",
O=C(O)CCn1c(=O)[nH]c2ccccc2c1=O,"inconclusive [inhibitor, single point]",
N#Cc1ccc(-c2nc3c4ccccc4ccn3c2Cc2ccccc2C(F)(F)F)cc1,"inconclusive [inhibitor, single point]",
CC(=O)O[C@]1(C(C)=O)CCC2C3C=C(C)C4=CC(=O)CC[C@]4(C)C3CC[C@@]21C (some centres undefined),"inconclusive [inhibitor, partial curve]",
O=C(Nc1cccc(N=Cc2cc(Br)cc(Br)c2O)c1)c1ccco1,"inconclusive [inhibitor, partial curve]",
CC(=O)N1CCc2cc(Br)cc(S(=O)(=O)NCCCN(C)Cc3ccccc3)c21,"inconclusive [inhibitor, full curve]",
O=C(Nc1cccs1)Nc1ccccc1Cl,active: 22.4 µM,
O=C(CCC(=O)Nc1ccc(F)cc1)N/N=C/c1ccc(O)cc1O,"inconclusive [inhibitor, partial curve]",
O=c1c2ccccc2ncn1Cc1cccc2ccccc12,"inconclusive [inhibitor, single point]",
CCOC(=O)C1(Cc2ccccc2)C(=O)Nc2ccccc21 (centres undefined),"inconclusive [inhibitor, full curve]",
Cc1ccc(F)cc1-c1nc(NCC2CC2)nc2ccsc12,"inconclusive [inhibitor, full curve]",
CC(=O)Oc1c(Br)cc(N(C(C)=O)S(=O)(=O)c2ccccc2)c2ccccc12,"inconclusive [inhibitor, single point]",
